Measurements reported in PubChem BioAssay AID485297 (National Center for Advancing Translational Sciences (NCATS), 2010).
The campaign covered roughly 320,000 compounds. About 9,100 (2.8%) were called active. The inconclusive results got no clear call from the source; some entries with a clear call stand among them for comparison. Calls come from the whole dose curve; as a rule, active = well fitted activation curve with a large enough effect; inconclusive = small, poorly fitted or top-dose-only effect; inactive = no such curve, though single readings can be large or run the other way. No potency is given beside an inconclusive call; the fits are too rough.
Potency is the fitted concentration of half-maximal effect; tags give direction and shape of the fitted curve.

Assay: qHTS Assay for Rab9 Promoter Activators; note: nearly all actives have a fitted effect of over 60% in size
Details: Huh7 Rab9 promoter-luciferase reporter, luminescence, 24 h; series mostly up to 9.22 µM
Method in brief: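 Measured in stably transfected Huh7 cells bearing a Rab9 promoter–luciferase construct: 24 h compound treatment at 37 °C, followed by luminescence detection.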
For `O=C(Nc1ccc(Cl)cn1)c1ccc(COc2ccccc2Br)o1`, the Potency was inconclusive [activator, single point]. In the case of `Cc1cc(NC2CCCC2)n2nc(C)c(-c3ccccc3)c2n1`, the Potency is reported as inconclusive [activator, single point]. In the case of `COc1ccccc1C1=NC(c2ccc(C)cc2)N=C1C` (stereo unspecified), the Potency is reported as inconclusive [activator, single point]. For `CC(Oc1ccccc1)C(=O)Nc1nnc(C2CCCCC2)s1` (stereo unspecified), the Potency was inconclusive [activator, single point]. For `CCOC(=O)c1cnc2cc(-c3ccc(C(C)(C)C)cc3)nn2c1N`, the Potency was inconclusive [activator, partial curve]. In the case of `O=C(NCc1ccccn1)C1CCCCC1`, the Potency is reported as “inactive”. In the case of `Cc1ccccc1N=C1Nc2ccccc2CS1`, the Potency is reported as active: 0.631 µM. In the case of `Cc1ccccc1C(=O)NC(CC(C)C)C(=O)OCc1cc(=O)n2cc(Br)ccc2n1` (stereo unspecified), the Potency is reported as inconclusive [activator, single point]. With `CCCCC(=O)Nc1ccc2c(c1)oc1ccccc12` the Potency was active: 3.55 µM. For `O=C(Nc1ccccc1)OCCOc1ccccc1Br`, the Potency was inconclusive [activator, partial curve]. In the case of `COCC(C)NC(=O)CCc1nnc(C2(c3ccc(Cl)cc3)CCC2)o1` (stereo unspecified), the Potency is reported as inconclusive [activator, single point]. In the case of `COc1cccc(C(=O)Nc2nc3ccc(S(C)(=O)=O)cc3s2)c1`, the Potency is reported as inconclusive [activator, partial curve]. For `O=C(COc1ccc(Cl)cc1)Nc1nnc(-c2ccc3c(c2)CCCC3)o1`, the Potency was inconclusive [activator, partial curve]. With `Cn1c(CNc2ccc(O)cc2)nc2ccccc21` the Potency was inconclusive [activator, partial curve]. For `C(=C\n1nnc2ccccc21)/c1ccccn1`, the Potency was active: 1.12 µM. For `O=C(Nc1ccccc1N1CCOCC1)c1cc2c(s1)CCCCC2`, the Potency was inconclusive [activator, partial curve]. In the case of `CCc1ccc(C(=O)N/N=C/c2ccncc2)s1`, the Potency is reported as inconclusive [activator, single point]. With `N/C(=N/OC(=O)c1ccccc1Cl)c1nonc1N` the Potency was inconclusive [activator, single point]. With `O=C1CC(c2cc(-c3ccccc3)no2)C1` the Potency was active: 2.82 µM. With `O=C(NC(=S)Nc1ccc(Cl)cc1)c1ccccc1` the Potency was inconclusive [activator, partial curve]. In the case of `CCc1ccc(N=c2c([N+](=O)[O-])nn(-c3ccccc3)n2O)cc1`, the Potency is reported as inconclusive [activator, partial curve, poor fit]. For `CC(/C=N/NC(=O)c1nnn(-c2nonc2N)c1C(C)C)=C\c1ccccc1`, the Potency was inconclusive [activator, partial curve]. With `COc1cccc(-c2cc(C(=O)Nc3cccnc3Cl)no2)c1` the Potency was “inactive”. With `Cc1nc2cc(C(=O)N3CCN(C)CC3)ccc2n1C` the Potency was “inactive”. In the case of `Cc1cc(C(=O)Nc2ccc(OCc3ccccc3)cc2)c(C)o1`, the Potency is reported as inconclusive [activator, single point]. With `Nc1nnn(CC(=O)N/N=C/c2cccc(Cl)c2)n1` the Potency was “inactive”. In the case of `Cc1ccc(Oc2cnc3ccccc3n2)cc1`, the Potency is reported as inconclusive [activator, partial curve]. For `O=C(NCCSCc1ccco1)Nc1cccc(Cl)c1`, the Potency was inconclusive [activator, single point]. With `COc1ccc(C(=O)Nc2cccc(C(=O)N/N=C/c3ccc(OC)cc3OC)c2)cc1` the Potency was active: 3.98 µM. For `O=C(Nc1nc2c(F)cccc2s1)C1CC1`, the Potency was inconclusive [activator, partial curve]. In the case of `O=C(c1cnn(-c2nc3ccccc3s2)c1)c1ccccc1O`, the Potency is reported as inconclusive [activator, single point]. With `O=C1CCC(=O)N1CCCCCc1nc(-c2ccccc2)no1` the Potency was inconclusive [activator, partial curve]. For `NC(=O)C1CCCN(C(=O)c2ccc(NC(=O)c3cccs3)cc2)C1` (stereo unspecified), the Potency was inconclusive [activator, single point]. With `CC1(C)Cc2nc3sc(C(=O)NCCCO)c(N)c3cc2CO1` the Potency was inconclusive [activator, partial curve]. For `CN(C(=O)CSc1nnc(-c2ccco2)o1)C1CCCCC1`, the Potency was inconclusive [activator, partial curve]. With `COc1ccc(-c2ccc(NC(=O)c3ccco3)cc2)nn1` the Potency was active: 0.1 µM. For `O=C(Nc1ccccc1)Nc1cccc2nsnc12`, the Potency was active: 3.16 µM. For `CC(C)CN(c1ccccc1)S(=O)(=O)c1nnc(NC(=O)c2ccco2)s1`, the Potency was “inactive”. In the case of `COc1ccc(S(=O)(=O)N2CCC(C(=O)Nc3nccs3)CC2)cc1`, the Potency is reported as inconclusive [activator, partial curve]. In the case of `COc1ccccc1NC(=O)NCCN1CCNC1=O`, the Potency is reported as “inactive”. For `CC(C)c1ccc(C(=O)N/N=C/c2cccc(Cl)c2Cl)cc1`, the Potency was inconclusive [activator, partial curve]. For `CCN(c1ccccc1)S(=O)(=O)c1ccc(Cl)c(NC(=O)CSc2nnc(C)s2)c1`, the Potency was “inactive”. With `COc1cccc(NC(=O)c2cccc(C)c2[N+](=O)[O-])c1` the Potency was inconclusive [activator, partial curve]. For `CC1CCC2C(=O)N(c3cccc(C(=O)Nc4ccccc4Cl)c3)C(=O)C2C1` (stereo unspecified), the Potency was “inactive”. With `COc1ccc(-c2cn3c(C)c(C(=O)NC(C)C)sc3n2)cc1` the Potency was inconclusive [activator, single point]. For `Cc1cccc(-c2cc3nc4c(c(NCc5ccco5)n3n2)CCCC4)c1`, the Potency was active: 3.16 µM. With `O=C(N/N=C/c1ccccn1)c1ccncc1` the Potency was inconclusive [activator, partial curve]. For `COC(=O)c1cccc(COC(=O)c2ccc(N(C)C)cc2)c1`, the Potency was inconclusive [activator, single point]. In the case of `Nn1c(SCC(=O)Nc2ccccc2F)nnc1-c1cccs1`, the Potency is reported as “inactive”. With `CC(=O)N1CCC2(CC1)C/C(=N\NC(=S)Nc1ccc(C)cc1)c1cc(O)ccc1O2` the Potency was “inactive”. For `O=C1CS/C(=N/N=C/c2ccccc2)N1Cc1ccco1`, the Potency was inconclusive [activator, single point]. With `O=c1ccc2cc(S(=O)(=O)Nc3ccc(Br)cc3)ccc2o1` the Potency was “inactive”. In the case of `COC(=O)C(C)(C)ONC(=O)Nc1ccc(C)cc1`, the Potency is reported as inconclusive [activator, single point]. With `Brc1ccc(/C=N/Nc2ccccn2)cc1` the Potency was active: 3.55 µM. With `c1ccc(-c2ccc(CNC3CC3)cc2)cc1` the Potency was inconclusive [activator, single point]. For `CCOC(=O)CN1C(=O)S/C(=C/c2ccc(N3CCCCC3)o2)C1=O`, the Potency was “inactive”. For `c1ccc2c(Oc3ccc4c(c3)OCO4)nncc2c1`, the Potency was active: 0.631 µM. In the case of `COc1cc(Cl)c(C)cc1NC(=O)COc1ccccc1[N+](=O)[O-]`, the Potency is reported as inconclusive [activator, partial curve]. In the case of `Cc1ccc(-n2cnc3cc(NCc4cccs4)ccc32)cc1`, the Potency is reported as inconclusive [activator, partial curve]. With `O=C(c1ccc2c3n(nc2c1)-c1ccc(Cl)cc1CO3)N1CCOCC1` the Potency was inconclusive [activator, partial curve]. With `Cc1c(NC(=O)Nc2ccc3c(c2)OCO3)cccc1[N+](=O)[O-]` the Potency was inconclusive [activator, partial curve]. For `COc1ccccc1OCC(=O)Nc1ccccn1`, the Potency was active: 3.16 µM. In the case of `O=C(N/N=C/c1cnc2ccccc2n1)c1cccc(F)c1`, the Potency is reported as inconclusive [activator, single point]. For `Fc1cccc(NCc2cn3ccccc3n2)c1`, the Potency was active: 0.794 µM. For `O=C(c1ccccc1)N1CCN(CC#Cc2ccccc2)CC1`, the Potency was inconclusive [activator, partial curve]. In the case of `CCOCCCN(CCC#N)C(=O)C1CCN(S(=O)(=O)c2ccc(-n3cnnn3)cc2)CC1`, the Potency is reported as “inactive”. With `Cc1nn(-c2ccc(N3CCCCC3)nn2)c(C)c1CCC(=O)Nc1ccc(F)cc1` the Potency was inconclusive [activator, partial curve, poor fit]. With `O=C(CSc1nnc(-c2ccco2)n1Cc1ccccc1)OC1CCCCC1` the Potency was active: 3.16 µM. For `CCCS(=O)(=O)N1CCCC(C(=O)NCCCN(Cc2ccccc2)C(C)C)C1` (stereo unspecified), the Potency was inconclusive [activator, single point]. In the case of `C/C(=N\Nc1nc2ccccc2s1)c1ccc2c(c1)OCO2`, the Potency is reported as inconclusive [activator, single point]. With `Cc1cc2cc3c(N)[nH]nc3nc2cc1C` the Potency was inconclusive [activator, single point]. For `CCOC(=O)c1[nH]c(C)c(C(=O)Nc2ccc3c(c2)CCC3)c1C`, the Potency was inconclusive [activator, partial curve]. With `Oc1csc(Cc2nc(-c3ccc(-c4ccccc4)cc3)cs2)n1` the Potency was inconclusive [activator, partial curve]. In the case of `Fc1cccc(F)c1-c1nc(-c2ccncc2)no1`, the Potency is reported as active: 2 µM. For `C=CCNc1nc(-c2cccs2)c(CC(=O)O)s1`, the Potency was “inactive”. In the case of `CC(=O)c1ccc(S(=O)(=O)N2CCN(c3nn(C)c(=O)n(C)c3=O)CC2)cc1`, the Potency is reported as “inactive”.
